Experimental findings from PubChem BioAssay AID434955 (Southern Research Specialized Biocontainment Screening …, 2010) are described below.

The other results are listed elsewhere or left out. The main result of the screen is listed elsewhere. These columns were measured beside it and carry no call. Compounds called inactive in the main read-out are mostly missing here.

By inhibition is commonly meant the drop in the measured response relative to a control, in per cent.

The nature of this assay: beta-lactam sensitization of Mtb H37Rv, H37Rv (AID 434955).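 Also: growth measured after seven days incubation then overnight dye step; 0% = bacteria only wells and 100% = bacteria with antibiotic.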 The conditions noted are these: M. tuberculosis H37Rv growth with meropenem, percent inhibition; measured here: primary screen without meropenem; at 25 µM.
With `O=C(CCNC(=O)c1ccc(Br)o1)NCc1ccccc1Cl`, the inhibition was -2.23%.

Take `Cc1ccc(C)c(N(CC(=O)NC2CCCC2)S(=O)(=O)c2ccccc2)c1`: the inhibition is -3.04%.

`Cc1ccc(CNC(=O)COc2ccc(S(=O)(=O)NC(C)C)cc2)cc1`: the inhibition came out at 10.8%.

As to `Cc1cccnc1NC(=S)NC(=O)c1cncc(Br)c1`, the inhibition is 40.6%.

In the case of `O=C(CN(CCc1ccccc1)Cc1ccccc1)Oc1ccccc1P(=O)(O)O`, the inhibition came out at 1.4%.

As for `O=c1oc(-c2cccs2)nc2sc3c(c12)CCCC3`, the inhibition was found to be 9.65%.

`COc1ccc(-c2csc3ncnc(N4CCN(c5cccc(OC)c5)CC4)c23)cc1`: the inhibition is -2.01%.

With `CCOCCCNC(=O)Cn1cc2c(n1)CCCCC2`, the inhibition is -4.15%.

For the compound `Cc1c(OCc2ccc(C(=O)O)cc2)ccc2c(-c3ccccc3)cc(=O)oc12`, the inhibition turned out to be 4.8%.

Turning to `COc1ccccc1CNC(=O)COC(=O)C1=COCCO1`, the inhibition came to 20.9%.

For the compound `Cc1cccc(OCC(O)Cn2c(=N)n(CCN3CCCCC3)c3ccccc32)c1` (centres undefined), the inhibition was found to be 98.2%.

Consider `CCOc1ccc(C(=O)Nc2c3c(nn2-c2cccc(Cl)c2)CS(=O)C3)cc1` (centres undefined), for which the inhibition was -7.54%.

On to `CCCCCCc1nc(C(N)=O)c2[nH]c(=O)n(-c3ccccc3F)c2n1`, for which the inhibition worked out at 3.87%.

As to `CCN(CC)c1ccc(NC(=O)c2cc(Cl)ccc2OC)cc1`, the inhibition came to 21.9%.

With `COC(=O)c1ccccc1NC(=O)CSCC(=O)Nc1ccc(F)cc1`, the inhibition was 33.2%.

Turning to `Cc1ccc(C(C)C)c(OCc2ccc(C(=O)N/N=C/c3ccc(C(=O)O)cc3)cc2)c1`, the inhibition was found to be 2.09%.

Regarding `O=C(Nc1ccc(Oc2ccccc2)nc1)C1CCCCN1Cc1ccc(O)cc1` (centres undefined), the inhibition amounted to 1.09%.

`Cc1ccc(N2CCN(S(=O)(=O)c3ccc(F)cc3)CC2)c(C)c1`: the inhibition worked out at 2.21%.

On to `CC(C)c1ccc(/C=C(/C#N)c2nnc(NC(=O)c3ccccc3)s2)cc1`, for which the inhibition was -0.98%.

As for `CSc1nc2c(c(=O)[nH]c(=O)n2C)n1C/C=C(\C)Cl`, the inhibition came out at 1.07%.

`COc1ccc(S(=O)(=O)N2CCCC2C(=O)Nc2ccc(O)cc2)cc1` (centres undefined): the inhibition was -6.05%.

Consider `CCN(CCCNC(=O)COc1cc(=O)n(CC)c2ccccc12)Cc1ccccc1`, for which the inhibition is -16.7%.

In the case of `Cc1ccc(NC(=O)CCS(=O)(=O)c2cccc3nonc23)cc1`, the inhibition came out at 13.6%.

With `Cc1ccc(N(C)S(=O)(=O)c2c(C)[nH]c(C)c2C(=O)N2CCCC2)cc1`, the inhibition is 3.19%.

Consider `CCOC(=O)C1=C(N)OC(C)=C(C#N)C1c1ccco1` (centres undefined), for which the inhibition is -7.49%.

With `COc1cc2c(cc1OC)CN(CC(=O)Nc1ccc(C)c(C)c1)CC2`, the inhibition is 0.13%.

In the case of `COc1ccc(CNC(=O)c2cnc(C)cn2)c(OC)c1`, the inhibition was -2.02%.

With `O=C(c1ccccc1F)N1CCN(C(=O)C2CC2)CC1`, the inhibition amounted to 2.5%.

With `COc1ccc(S(=O)(=O)Nc2cc3[nH]c(=O)oc3cc2C)cc1`, the inhibition is -0.66%.

As to `COc1ccc(N2CCN(C(=O)CCCOc3cc(=O)n(C)c4ccccc34)CC2)cc1`, the inhibition is -0.49%.

Regarding `CC1Cn2c(nnc2-c2cccc(Cl)c2)S1` (centres undefined), the inhibition was -7.11%.

In the case of `Cc1ccc(-n2nc3c(c2NC(=O)C(C)C)CS(=O)(=O)C3)cc1`, the inhibition was determined as 5.02%.

Turning to `O=C(COc1ccc2ccccc2c1)Nc1nc2ccccc2[nH]1`, the inhibition was 24.2%.

As for `Cc1cc(C)nc(NC(=O)Nc2ccccc2C(F)(F)F)n1`, the inhibition was determined as 1.49%.

Consider `CCC1(C)Cc2c(sc3c2c(=O)n(C)c2nnc(SCC(=O)c4ccccc4)n32)CO1` (centres undefined), for which the inhibition was -2.92%.

For `Cc1ccccc1C(=O)Nc1ccnn1C1CCN(Cc2ccncc2)CC1`, the inhibition came to 4.05%.

For `CCC(=O)Nc1cccc(-c2ccc(N3CCC(C)CC3)nn2)c1`, the inhibition is -0.02%.

For `COc1cccc(C2CC(c3cccc(Br)c3)n3ncnc3N2)c1` (centres undefined), the inhibition amounted to 2.56%.

With `CCCC(C)NC(=O)c1ccccc1SC` (centres undefined), the inhibition was -4.31%.

With `CC(C)(C)NCCCOc1ccc(Cl)cc1C(C)(C)C`, the inhibition was -11.2%.

As for `Cc1ccc(NS(=O)(=O)c2cc3[nH]c(=O)c(=O)[nH]c3cc2C)c(C)c1`, the inhibition was -1.8%.

As for `O=C(CN1C(=O)c2cccnc2Oc2ccc(Cl)cc21)N1CCCCCC1`, the inhibition came out at 7.35%.

Take `CCn1cc(C(=O)N[C@@H](C)C(=O)OC)c(=O)c2cc3c(cc21)OCO3`: the inhibition was 0.2%.

As for `Cc1cc(NC(=O)c2ccc3c(c2)OCCO3)ccc1NC(=O)c1cc2ccccc2o1`, the inhibition came out at 22.6%.

Turning to `Cc1cccc(CCNC(=O)CC2C(=O)NCCN2Cc2ccccc2C)n1` (centres undefined), the inhibition was determined as 0.25%.

As for `CCOC(=O)c1ccc(C(=O)NNC(=O)C2CC=CCC2)cc1` (centres undefined), the inhibition turned out to be 12%.

For `O=C(Nc1ccc(Br)cc1)c1cccc(N2C(=O)CCC2=O)c1`, the inhibition is -7.3%.

On to `CCC(NC(=O)c1cc(COc2c(F)cccc2F)on1)c1ccncc1` (centres undefined), for which the inhibition was -2.33%.

Take `COC(=O)c1cnn(-c2ccccc2)c1/C=N/NC(=S)Nc1ccc(Cl)cc1`: the inhibition turned out to be 24.4%.

As to `CCOC(=O)CN1CC23C=CC(O2)C(C(=O)NC2CCCC2)C3C1=O` (centres undefined), the inhibition is -4.61%.

Turning to `CCC(C)(C(=O)NC1CCCCC1)N(CC1CCCO1)C(=O)CNC(=O)c1ccccc1` (centres undefined), the inhibition was -1.72%.

Take `CC(C)c1csc(CN2CCC(n3nccc3NC(=O)Cc3ccccc3)CC2)n1`: the inhibition is -5.99%.

Regarding `Cc1ccc(-n2c(SCC(=O)Nc3ccc4c(c3)OCO4)nnc2-c2ccccn2)cc1`, the inhibition turned out to be 9.22%.

As for `O=C(OC(C(=O)NC1CCCC1)c1ccccc1F)c1ccco1` (centres undefined), the inhibition turned out to be 2.72%.

As for `CCC(C)(C(=O)NC1CCCCC1)N(C(=O)c1ccccn1)c1ccc(C)cc1` (centres undefined), the inhibition was -0.42%.

Turning to `CC(=O)Nc1ccc(S(=O)(=O)N2CCN=C2SCc2ccc([N+](=O)[O-])cc2)cc1`, the inhibition was -2.03%.

Regarding `COc1cc(CN2CCC(n3nccc3NC(=O)c3ccc4c(c3)OCO4)CC2)ccc1O`, the inhibition is -2.64%.

For `CCCc1cc(=O)[nH]c(SCC(=O)N2CCC(C)CC2)n1`, the inhibition is -1.53%.

With `CC12CCC(=O)N1C(C(=O)Nc1ccccc1N1CCOCC1)CS2` (centres undefined), the inhibition was -0.84%.

As for `Cc1cc(C(=O)Nc2cccc3ncccc23)no1`, the inhibition is 3.35%.

For `Cc1cc(CN2CCC(N3CCC(C(=O)NC4CC4)CC3)CC2)cc(C)c1O`, the inhibition was -3.01%.

`COCCCNC(=O)C1CCN(S(=O)(=O)c2c(C)noc2/C=C\c2ccc(OC)cc2)CC1`: the inhibition was -7.52%.

Turning to `O=C(c1ccc(S(=O)(=O)N2CCCC2)cc1)N1CCN(c2cccc(Cl)c2)CC1`, the inhibition was -7.89%.

For the compound `Clc1ccc(N2CCCCCC2)nn1`, the inhibition was 2.5%.

As to `Cc1ccc2c(c1)nnn2C1CCN(C(=O)C2CCCCC2)CC1`, the inhibition came out at 4.72%.

For the compound `CN(C)CC(=O)Nc1nc(-c2ccccc2)cs1`, the inhibition was determined as 33.6%.

`CCn1cc(C2=NOC(C(=O)Nc3cc(C)nn3-c3ccccc3)C2)c(C)n1` (centres undefined): the inhibition stood at 0.63%.

For the compound `COC(=O)CSc1nnc(NC(=O)C2CC(=O)N(c3ccc(F)cc3)C2)s1` (centres undefined), the inhibition is -4.63%.

For the compound `Cc1ccccc1/C=N\NC(=O)c1csnn1`, the inhibition came out at 16.6%.

With `COc1ccc(NC(=O)/C(C#N)=C/c2ccc(OCCN3CCOCC3)c(OC)c2)c(OC)c1`, the inhibition was -2.5%.

With `CCN(c1cccc(C)c1)S(=O)(=O)c1cccc(C(=O)O)c1`, the inhibition was -4.17%.

As to `Cc1ccc(OCC(=O)N/N=C/c2cn(C)c3ccccc23)cc1`, the inhibition is 8.03%.

In the case of `Cc1cc(NC(=O)COc2nnc(-c3ccccc3)c3ccccc23)no1`, the inhibition turned out to be 27%.

Take `CC1(C)Cc2c(sc(NC(=O)C(=O)N3CCN(CCO)CC3)c2C(N)=O)CO1`: the inhibition is -4.47%.

Consider `CCCn1c(=O)c2c(nc3n2CCCN3Cc2ccccc2)n(C)c1=O`, for which the inhibition is -4.2%.

Consider `CC1(C)Cc2nc3[nH]c(=S)n(-c4ccccc4)c(=O)c3cc2CO1`, for which the inhibition amounted to 2.73%.

`N#CCOC(=O)/C=C/c1ccc2c(c1)OCO2`: the inhibition was determined as 14.8%.

Regarding `Cc1ccc(/C=C2\SC(=S)N(CCC(=O)Nc3cccnc3)C2=O)cc1`, the inhibition was -1.17%.

In the case of `COc1cc(CN2CCC(n3nccc3NC(=O)c3ccccc3OC)CC2)ccc1F`, the inhibition came out at 7.24%.

Regarding `COc1ccc(N(C(=O)c2cccnc2)S(=O)(=O)c2ccc(F)cc2)cc1`, the inhibition turned out to be 3.58%.

As to `O=C(O)C1CCCN(C(=O)NCc2ccccc2)C1` (centres undefined), the inhibition is 2.09%.

For `N#CCSc1nc2ccccc2c2nc3ccccc3n12`, the inhibition turned out to be 1.57%.

On to `COc1ccc(C(=O)NC(C)c2cnn(-c3ccccn3)c2C)o1` (centres undefined), for which the inhibition is -1.84%.

As to `CCNC(=S)N/N=C1\C(=O)c2cccc3cccc1c23`, the inhibition was determined as 28.2%.

In the case of `O=C1COc2ccc(C(=O)CCl)cc2N1`, the inhibition amounted to 45%.

With `C=CCSc1nccc(-c2nn(-c3ccc(C)cc3)ccc2=O)n1`, the inhibition is 20.7%.

Consider `CC(C)C[C@H](NC(=O)c1nc[nH]c1C(=O)N1CCN(C(=O)OC(C)(C)C)CC1)C(=O)OCc1ccccc1`, for which the inhibition was determined as 20%.

Regarding `Cc1cccc(NC(=O)CS(=O)(=O)c2c[nH]c3ccccc23)c1C`, the inhibition was 3.11%.

Turning to `COc1ccc(CSc2nnnn2-c2ccc(C(=O)O)cc2)cc1`, the inhibition was -1.34%.

As for `CC(C)[C@@H](NC(=O)OC(C)(C)C)C(=O)NCC1CCC(C(=O)N[C@@H](Cc2ccccc2)C(=O)O)CC1` (some centres undefined), the inhibition turned out to be 2.44%.

Regarding `Fc1ccc(C2CC(c3ccccc3)Nc3ncnn32)cc1` (centres undefined), the inhibition is -9.98%.

Regarding `COc1ccc(NC2CCCN(C(=O)CCCn3cncn3)C2)cc1` (centres undefined), the inhibition amounted to 1.97%.

For `Cc1ccc(C(=O)NC(C)c2ccccc2)cc1S(=O)(=O)N1CCOCC1` (centres undefined), the inhibition was -4.65%.

On to `O=C(NCc1ccccn1)C1CCN(S(=O)(=O)N2CCC3(CC2)OCCO3)CC1`, for which the inhibition stood at 3.99%.

As to `O=C1N/C(=C\c2ccc(O)cc2)C(=O)c2ccccc21`, the inhibition is 44.9%.

`CSc1ccccc1OCc1cc(C(=O)N2CCC(Oc3cccnc3)CC2)no1`: the inhibition amounted to 99.6%.

As for `COc1ccc(CC(C)CC(=O)NCCc2ccc(OC)c(OC)c2)cc1` (centres undefined), the inhibition is -3.03%.

For `CN(C)c1cccc2c1c(NS(=O)(=O)c1cn(C)cn1)nn2C`, the inhibition is 1.82%.

For the compound `Cn1nnnc1Sc1ncnc2scc(-c3ccccc3)c12`, the inhibition was determined as 15.1%.

Turning to `C=C(C)C1Cc2c(C)nn(-c3cccc4ccccc34)c2C1` (centres undefined), the inhibition was 40.9%.

Consider `O=C(COc1ccccc1Cl)N1CCN(c2ncccn2)CC1`, for which the inhibition was -0.7%.

For the compound `Cc1cc(C)c(-c2c(O)c3ccccc3n(C)c2=O)c(C)c1`, the inhibition was -1.69%.

Turning to `Cc1cc(C)cc(C(=O)N2CCC(CCC(=O)NC3CC3)CC2)c1`, the inhibition was -0.23%.

On to `Cc1ccc(Cn2nnnc2CN2CCC(n3nnc4ccccc43)CC2)cc1`, for which the inhibition stood at 61.3%.

As for `Cc1ccc(C)c(NC(=O)Cn2nc(C)c3ccccc3c2=O)c1`, the inhibition was determined as 1.82%.

Take `COc1cccc(CSc2nnc(-c3ccncc3)n2N)c1`: the inhibition is -10%.

Turning to `CCCNS(=O)(=O)c1ccc(CCC(=O)N2CCC(C)CC2)cc1`, the inhibition came to 6.13%.

For the compound `COc1ccccc1NC(=O)C(C)n1cnc2c(oc3nc4c(cc32)CCCC4)c1=O` (centres undefined), the inhibition was -3.83%.

Turning to `Cc1c(C(=O)OCC(C)C)[nH]c2c1C(=O)CC(c1ccco1)C2` (centres undefined), the inhibition is -3.43%.
